This is an account of results in the supplement of paper PMC9446081.

SMILES strings stand for the structures. Hit rate of the full screen: of about 39,000 compounds, about 220 (0.56%) showed activity. The list shows a part of the results.
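Note: static incubation at 37 °C against the wild-type strain, values averaged over two biological replicates.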

This assay has as its system Escherichia coli K-12 BW25113. In words: relative growth (OD600 normalised to plate interquartile mean) (fraction); higher = less growth inhibition, active = 0.2 or less. Conditions: 50 µM; LB; incubation time: overnight (16-24 h).
As for `Cc1noc(C)c1S(=O)(=O)N(C)C[C@@H]1Oc2ccc(NC(=O)C3CC3)cc2CC(=O)N([C@@H](C)CO)C[C@@H]1C`, the relative growth was inactive: 1.
The figure for `Oc1ccccc1/N=C/c1ccncc1` is inactive: 0.953; for `C[C@H](O)C#Cc1ccc2c(c1)O[C@H](CN(C)C(=O)c1ccccc1)[C@H](C)CN([C@H](C)CO)S2(=O)=O` it is inactive: 0.971; for `Nc1ccc(S(N)(=O)=O)cc1` it is inactive: 1.03.
The figure for `O=C(O)c1cccc(-n2cnnn2)c1` is inactive: 1.02.
The value for `CCCCCCCCCCCCC(C(=O)O)C(C)C(=O)O` (centres undefined) was inactive: 1.01; that for `COc1cccc2c1C(=O)c1c(O)c3c(c(O)c1C2=O)C[C@@](O)(C(=O)CO)C[C@@H]3O[C@H]1C[C@H](N)[C@@H](O)[C@H](C)O1` was inactive: 0.835.
`C[C@@H]1CN([C@@H](C)CO)C(=O)c2cc(NC(=O)Cn3cnnn3)ccc2O[C@H]1CN(C)S(=O)(=O)c1ccc(Cl)cc1`: the relative growth is inactive: 0.97.
For the compound `C[C@H](CO)N1C[C@H](C)[C@@H](CN(C)C(=O)Nc2ccc3c(c2)OCO3)OCCCC[C@H](C)Oc2ccc(NC(=O)Nc3ccccc3)cc2C1=O`, the relative growth was inactive: 1.02.
The figure for `Cc1noc(C)c1S(=O)(=O)Nc1ccc2c(c1)C(=O)N([C@H](C)CO)C[C@H](C)[C@H](CN(C)S(=O)(=O)c1cn(C)cn1)O2` is inactive: 0.988; for `O=C1C(Cl)=C2OC[C@@]2(O)C[C@@H]2CCCN12` it is inactive: 0.929; for `C[C@@H]1CN([C@H](C)CO)C(=O)Cc2cc(NC(=O)CCCCCC(=O)Nc3ccccc3N)ccc2O[C@@H]1CN(C)Cc1ccc(Oc2ccccc2)cc1` it is inactive: 1.01.
Consider `C[C@@H]1CN([C@H](C)CO)C(=O)CCCn2cc(nn2)CO[C@H]1CN(C)S(=O)(=O)c1ccc2ccccc2c1`, for which the relative growth is inactive: 1.
For the compound `O=C1OCC=C[C@H]2O[C@@]34C=CCN(c5ccc6ccccc6c5)C(=O)[C@H]3N(CCCCCO)C(=O)[C@@H]4[C@@H]12`, the relative growth was inactive: 1.
The value for `CO[C@@H]1CN(C)C(=O)c2cc(NC(=O)C3CC3)ccc2OC[C@H](C)N(C(=O)C2CCOCC2)C[C@@H]1C` was inactive: 0.998; that for `Cc1ccc(S(=O)(=O)Nc2ccc3c(c2)C(=O)N([C@@H](C)CO)C[C@@H](C)[C@H](CN(C)CC2CC2)O3)cc1` was inactive: 1.01; that for `CCO[C@@H]1OC(C(=O)N2CCN(Cc3ccc4c(c3)OCO4)CC2)=C[C@H](c2ccc3c(c2)OCO3)[C@H]1CCCO` was inactive: 1.01.
Regarding `C[C@H](CO)N1C[C@H](C)[C@@H](CN(C)CC2CC2)OCCCC[C@H](C)Oc2ccc(NC(=O)Cc3ccccc3)cc2C1=O`, the relative growth is inactive: 0.998.
Take `NC(=O)NCC#Cc1ccc2c(c1)[C@]1(C(=O)N2)[C@H](C(N)=O)[C@H]2C(=O)O[C@H](c3ccccc3)[C@H](c3ccccc3)N2[C@@H]1c1ccc(OCCO)cc1`: the relative growth is inactive: 1.01.
`NC(=O)NCC#Cc1ccc2c(c1)[C@]1(C(=O)N2)[C@H](C(=O)O)[C@H]2C(=O)O[C@H](c3ccccc3)[C@H](c3ccccc3)N2[C@@H]1c1ccc(OCCO)cc1`: the relative growth was inactive: 0.986.
The value for `O=C(C[C@H]1C[C@@H]2c3cc(NS(=O)(=O)c4ccc(F)cc4)ccc3O[C@@H]2[C@H](CO)O1)NCc1ccccn1` was inactive: 0.99; that for `C[C@H](CO)N1C[C@H](C)[C@@H](CN(C)S(C)(=O)=O)Oc2c(NC(=O)c3cnccn3)cccc2C1=O` was inactive: 1.
The figure for `Cc1cc(=O)n2nc(CC(=O)NCCCn3c(C)cccc3=O)nc2[nH]1` is inactive: 0.981.
Turning to `C[C@@H]1CCCCO[C@H](CN(C)CC2CC2)[C@@H](C)CN([C@@H](C)CO)C(=O)c2cc(NS(=O)(=O)c3ccc(Cl)cc3)ccc2O1`, the relative growth was inactive: 0.945.
The value for `COc1ccc([Si](C)(C)[C@H]2[C@H](CC(=O)N3Cc4ccccc4C[C@H]3CO)O[C@@]3(C(=O)N(Cc4cccc(N5CCOC5=O)c4)c4ccccc43)[C@@H]2C)cc1` was inactive: 0.999; that for `COc1ccc(NC(=O)Nc2ccc3c(c2)C(=O)N([C@H](C)CO)C[C@H](C)[C@H](CN(C)C(=O)NC(C)C)OCCCC[C@H](C)O3)cc1` was inactive: 0.984.
The value for `C=CC[C@H](Nc1ccccc1C)c1ccc(Cl)cc1` was inactive: 0.951.
The figure for `COc1ccc(S(=O)(=O)N(C)C[C@H]2OCCCC[C@H](C)Oc3ccc(NS(=O)(=O)c4cn(C)cn4)cc3C(=O)N([C@@H](C)CO)C[C@H]2C)cc1` is inactive: 0.987.
Consider `C[C@H]1CN([C@@H](C)CO)C(=O)Cc2cc(NC(=O)C3CC3)ccc2O[C@@H]1CN(C)Cc1ccc2c(c1)OCO2`, for which the relative growth was inactive: 1.
The figure for `COc1ccc(CN(C)C[C@H]2OCCCC[C@H](C)Oc3ccc(NS(=O)(=O)c4c(C)noc4C)cc3C(=O)N([C@@H](C)CO)C[C@@H]2C)cc1` is inactive: 0.889; for `C[C@@H]1CN([C@@H](C)CO)S(=O)(=O)c2ccc(-c3cncnc3)cc2O[C@H]1CN(C)C(=O)NC1CCCC1` it is inactive: 0.976.
The value for `CO[C@H]1CN(C)C(=O)c2ccc(NS(C)(=O)=O)cc2OC[C@H](C)N(C(=O)c2ccc3c(c2)OCO3)C[C@H]1C` was inactive: 1.01; that for `C[C@@H]1CN([C@@H](C)CO)C(=O)c2cc(NS(C)(=O)=O)ccc2O[C@H]1CN(C)Cc1ccc2c(c1)OCO2` was inactive: 1.01.
Turning to `Cn1c(CNc2ccccc2)cc(=O)n(C)c1=O`, the relative growth is inactive: 0.992.
The value for `COc1ccc(NC(=O)N(C)C[C@@H]2OCc3cn(nn3)CCCC(=O)N([C@H](C)CO)C[C@@H]2C)c(OC)c1` was inactive: 1.01; that for `CC(C)NC(=O)Nc1ccc2c(c1)CC(=O)N([C@@H](C)CO)C[C@@H](C)[C@H](CN(C)C(=O)NC1CCCCC1)O2` was inactive: 0.994; that for `C[C@H](CO)N1C[C@H](C)[C@@H](CN(C)S(=O)(=O)c2ccc(F)cc2)Oc2ccc(NC(=O)C3CC3)cc2C1=O` was inactive: 0.987.
For `C[C@@H]1CN([C@H](C)CO)C(=O)c2cc(C#CCN(C)C)cnc2O[C@H]1CN(C)S(=O)(=O)c1ccccc1`, the relative growth was inactive: 0.995.
The figure for `O=C(Nc1ccc2c(c1)[C@H]1C[C@@H](CC(=O)N3CCc4ccccc4C3)O[C@H](CO)[C@H]1O2)C1CCOCC1` is inactive: 1.02.
